Values joined by “and” are separate entries in the source; they are usually repeats but may differ in a detail not shown here. Equal entries are not always repeated. Inconclusive means that the source gave no clear call. Such entries were picked first, then a sample of the others. Potencies beside an inconclusive call are fits to weak or partial responses and may not hold up. Active and inactive are the calls of the source. Calls come from the whole dose curve; as a rule, active = well fitted activation curve with a large enough effect in the signal ratio in the repeat runs (not every such curve was filed as active); inconclusive = weak or mixed curves; inactive = flat fitted curve, though single readings scatter; the % refers to the signal ratio.
Test: qHTS assay to identify small molecule agonists of the TGF-beta/Smad signaling pathway (AID 1346859)
Settings: SBE-bla HEK293T, TGF-beta/Smad beta-lactamase reporter, 5 h; series mostly up to 76.8 µM
Procedure, shortened: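 Reporter line: HEK 293T with stably integrated SBE-controlled beta-lactamase. Compound exposure lasts 5 hr at 37 C and 5% CO2; substrate loading follows for 2 hr at room temperature, with emission read at 460 and 530 nm.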
Potency is the fitted concentration of half-maximal effect; tags give direction and shape of the fitted curve or compound fluorescence and quenching.

| Structure (SMILES) | Potency |
| --- | --- |
| Cc1cc(=O)oc2cc(O)cc(O)c12 | inconclusive: 24.6 µM [fluorescent, full curve] |
| C=CC(=O)Nc1cc2c(Nc3ccc(F)c(Cl)c3)ncnc2cc1OCCCN1CCOCC1 | inconclusive: 15.1 µM [rising, partial curve] |
| O[C@@H](c1cc(C(F)(F)F)nc2c(C(F)(F)F)cccc12)[C@H]1CCCCN1 | inactive |
| CCc1cccc(CC)c1NC(=O)CN(CC(=O)O)CC(=O)O | inactive |
| C[C@H](CCC(=O)O)[C@H]1CC[C@H]2[C@@H]3CC[C@@H]4C[C@H](O)CC[C@]4(C)[C@H]3C[C@H](O)[C@]12C | inconclusive: 27.6 µM [rising, partial curve] |
| CCN(CC)C(=O)c1cc(S(=O)(=O)Cc2ccccc2)c(N2CCC(c3ccccc3)CC2)cc1N(CC)CCN(C)C | inconclusive: 12.2 µM [rising, partial curve] |
| Nc1c2ccccc2nc2ccccc12 | inconclusive: 38.4 µM [fluorescent, partial curve] and active: 23.9 µM |
| c1cc(C(c2ccc(OCC3CO3)cc2)c2ccc(OCC3CO3)cc2)ccc1OCC1CO1 (stereo unspecified) | inconclusive: 24.5 µM [rising, partial curve] |
| CC1(C)O[C@@H]2C[C@H]3[C@@H]4CCC5=CC(=O)CC[C@]5(C)[C@@]4(F)[C@@H](O)C[C@]3(C)[C@]2(C(=O)CCl)O1 | inactive |
| CC(=O)OC(OC(C)=O)c1ccc([N+](=O)[O-])o1 | inconclusive: 55.9 µM [rising, single point] |
| O=S(=O)(O)c1ccccc1/C=C/c1ccc(-c2ccc(/C=C/c3ccccc3S(=O)(=O)O)cc2)cc1 | active: 44.3 µM |
| CN(C)c1ccc2nc3ccc(=[N+](C)C)cc-3sc2c1 | inconclusive: 6.74 µM [falling, partial curve, poor fit] |
| [Cl][Au]([Cl])[Cl] | inconclusive: 61.6 µM [falling, partial curve, poor fit] |
| CCN(CCCc1ccccc1)CCCc1ccccc1 | inconclusive: 6.74 µM [rising, partial curve] |
| Oc1c(Cl)cc(Cl)cc1Sc1cc(Cl)cc(Cl)c1O | inconclusive: 49 µM [rising, single point] |
| O=[N+]([O-])c1ccc(O/N=C/c2cc(Br)c(O)c(Br)c2)c([N+](=O)[O-])c1 | inconclusive: 54.7 µM [rising, partial curve, poor fit] |

Source: PubChem BioAssay (Tox21)
